According to PubChem BioAssay AID504333 (National Center for Advancing Translational Sciences (NCATS), 2011):
Values joined by “and” are separate entries in the source; they are usually repeats but may differ in a detail not shown here. Equal values may be shown once. Out of some 360,000 compounds screened, about 16,000 (4.4%) were called active. The inconclusive results got no clear call from the source; some entries with a clear call stand among them for comparison. The call rests on the fitted dose curve; in most records, active means well fitted inhibition curve with a large enough effect; inconclusive means small, poorly fitted or top-dose-only effect; inactive means no such curve, though single readings can be large or run the other way. Potencies beside an inconclusive call are fits to weak or partial responses and may not hold up.

Target: Bromodomain adjacent to zinc finger domain protein 2B (Homo sapiens) (UniProt Q9UIF8)
Chain of UniProt Q9UIF8 (Q9UIF8 whole entry, looked up, the tested form may be a part): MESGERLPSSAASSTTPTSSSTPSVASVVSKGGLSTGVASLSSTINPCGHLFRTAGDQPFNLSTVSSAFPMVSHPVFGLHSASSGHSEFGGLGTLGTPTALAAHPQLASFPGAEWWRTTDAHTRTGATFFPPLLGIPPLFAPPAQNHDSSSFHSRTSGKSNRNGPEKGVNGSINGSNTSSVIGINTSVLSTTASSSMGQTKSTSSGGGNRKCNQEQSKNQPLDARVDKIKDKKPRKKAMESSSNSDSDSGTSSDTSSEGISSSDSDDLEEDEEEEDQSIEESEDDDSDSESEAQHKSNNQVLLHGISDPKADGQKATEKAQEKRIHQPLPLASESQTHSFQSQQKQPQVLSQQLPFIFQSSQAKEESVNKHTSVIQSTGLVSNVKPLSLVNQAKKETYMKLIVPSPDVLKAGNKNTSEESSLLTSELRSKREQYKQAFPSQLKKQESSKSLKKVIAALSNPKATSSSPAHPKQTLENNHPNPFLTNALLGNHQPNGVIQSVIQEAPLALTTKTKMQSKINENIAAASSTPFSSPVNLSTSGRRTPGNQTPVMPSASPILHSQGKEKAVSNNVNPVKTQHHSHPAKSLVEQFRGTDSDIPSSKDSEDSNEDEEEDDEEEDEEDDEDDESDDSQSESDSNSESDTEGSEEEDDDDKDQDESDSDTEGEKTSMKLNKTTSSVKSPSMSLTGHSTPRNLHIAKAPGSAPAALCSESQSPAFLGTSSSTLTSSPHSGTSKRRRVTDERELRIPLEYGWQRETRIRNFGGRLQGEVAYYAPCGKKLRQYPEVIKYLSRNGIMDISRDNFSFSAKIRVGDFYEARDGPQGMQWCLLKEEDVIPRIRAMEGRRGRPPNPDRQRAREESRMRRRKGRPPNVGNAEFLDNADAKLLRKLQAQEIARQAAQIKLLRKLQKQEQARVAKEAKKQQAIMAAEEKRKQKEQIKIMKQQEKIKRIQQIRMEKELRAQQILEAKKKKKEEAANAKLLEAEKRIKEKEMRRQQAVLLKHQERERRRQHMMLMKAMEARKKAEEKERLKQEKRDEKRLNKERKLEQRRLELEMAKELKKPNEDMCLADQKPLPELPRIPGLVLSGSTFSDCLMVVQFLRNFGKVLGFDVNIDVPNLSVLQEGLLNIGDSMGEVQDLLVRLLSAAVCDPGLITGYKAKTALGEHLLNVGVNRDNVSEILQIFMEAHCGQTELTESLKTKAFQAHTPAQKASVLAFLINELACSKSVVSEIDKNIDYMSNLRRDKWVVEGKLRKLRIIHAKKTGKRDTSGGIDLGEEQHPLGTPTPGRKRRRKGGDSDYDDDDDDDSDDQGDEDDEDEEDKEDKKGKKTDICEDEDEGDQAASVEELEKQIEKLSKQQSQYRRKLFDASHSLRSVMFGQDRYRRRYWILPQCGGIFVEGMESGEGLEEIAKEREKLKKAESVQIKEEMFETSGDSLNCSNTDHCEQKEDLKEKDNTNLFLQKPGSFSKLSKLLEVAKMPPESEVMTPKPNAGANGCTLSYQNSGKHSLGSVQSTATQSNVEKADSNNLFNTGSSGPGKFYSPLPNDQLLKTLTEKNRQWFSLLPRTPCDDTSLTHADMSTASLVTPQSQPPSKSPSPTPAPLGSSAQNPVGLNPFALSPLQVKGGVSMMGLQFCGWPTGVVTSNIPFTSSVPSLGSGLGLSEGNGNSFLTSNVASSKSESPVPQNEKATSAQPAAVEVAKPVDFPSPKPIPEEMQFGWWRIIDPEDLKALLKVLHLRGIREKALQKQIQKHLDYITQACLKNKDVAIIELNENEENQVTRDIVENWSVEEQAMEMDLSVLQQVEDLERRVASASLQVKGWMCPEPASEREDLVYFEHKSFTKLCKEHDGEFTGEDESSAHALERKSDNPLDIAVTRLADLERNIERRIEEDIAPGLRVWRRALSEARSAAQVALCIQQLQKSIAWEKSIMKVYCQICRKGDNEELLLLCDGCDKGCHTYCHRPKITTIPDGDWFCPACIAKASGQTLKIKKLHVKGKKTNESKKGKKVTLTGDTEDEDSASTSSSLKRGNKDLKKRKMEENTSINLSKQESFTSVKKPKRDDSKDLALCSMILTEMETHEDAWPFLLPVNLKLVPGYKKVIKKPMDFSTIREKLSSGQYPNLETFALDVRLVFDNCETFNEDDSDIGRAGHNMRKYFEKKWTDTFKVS
Assay: qHTS Assay for Inhibitors of BAZ2B; further: nearly all actives have a fitted effect of over 60% in size
Details: AlphaScreen BAZ2B-H3K14Ac peptide displacement; series mostly up to 114 µM
Procedure, shortened: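 AlphaScreen displacement: compounds (up to 110uM) incubated 30 min at room temperature with a preformed 50 nM BAZ2B/50 nM biotinylated H3K14Ac peptide complex in PBS pH 7.4 with Tween-20. Donor and acceptor beads at 10 ug/mL final added, 20 min light-protected before reading.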
Potency means the concentration at half of the fitted maximal effect; tags describe the fitted curve by direction and shape.

Row | SMILES | Potency
1 | O=S(=O)(c1cccs1)N1CN(C2CCCC2)c2nc3ccccc3nc21 | inconclusive: 79.4 µM [inhibitor, single point]
2 | CC(C)c1cc(Nc2cccc(O)c2)cc(C(C)C)c1O | active: 31.6 µM
3 | COc1cccc(-c2cc(C(=O)NCCCn3ccnc3)c3ccccc3n2)c1 | inconclusive: 89.1 µM [inhibitor, single point]
4 | CC(C)(C)OC(=O)N1CCc2nc(N3CCN(c4ncccn4)CC3)ncc2C1 | inactive
5 | CCC(=O)N1CCc2cc(-c3csc(NC(=O)c4ccco4)n3)ccc21 | inconclusive: 89.1 µM [inhibitor, single point]
6 | Cc1ccc(-n2nc3c(=O)n(CC(=O)NCCc4ccccc4C)nc(C)c3c2C)cc1 | inactive
7 | CC(=O)Nc1ccc(S(=O)(=O)NC2C3(C)CCC(C3)C2(C)C)cc1 (configuration not stated) | inactive
8 | CSc1ccccc1C(=O)NCC(c1ccco1)N(C)C (configuration not stated) | inactive
9 | CC(=O)N1CCc2c(sc3c2c(=O)n(Cc2ccccc2)c(=O)n3Cc2ccccc2F)C1 | inconclusive: 25.1 µM [inhibitor, full curve]
10 | Cc1ccc(OCc2nnc(SCc3nc4ccccc4[nH]3)n2Cc2ccco2)cc1 | inconclusive: 39.8 µM [inhibitor, partial curve]
11 | Cc1nn(-c2ccccc2)c(C)c1/C=N/N1CCN(c2ccccc2)CC1 | inconclusive: 89.1 µM [inhibitor, single point]
12 | Cc1ccc(C(=O)c2oc3ccc(Cl)cc3c2NC(=O)CN2CCN(C)CC2)cc1 | active: 25.1 µM
13 | O=C(CN1CCOCC1)NCc1cc([N+](=O)[O-])ccc1O | inactive
14 | COc1cccc(COCC(O)Cn2cnc3cc(C)c(C)cc32)c1 (configuration not stated) | inconclusive: 79.4 µM [inhibitor, single point]
15 | CCCC(=O)Nc1sc(C(=O)Nc2cccc(N)c2)c(C)c1C(=O)OC | inconclusive: 79.4 µM [inhibitor, single point]
16 | Cc1ccc(S(=O)(=O)NC(CC(C)C)C(=O)N2CCOCCOCCOCCOCC2)cc1 (configuration not stated) | inactive
17 | NS(=O)(=O)c1ccc(N=Nc2c(O)ccc3ccccc23)cc1 | inconclusive: 35.5 µM [inhibitor, partial curve]
18 | CC(C)n1c(CCC(=O)O)ccc1-c1ccccc1 | inactive
19 | COc1ccc(CN2CCN(Cc3ccc4ccccc4c3)CC2)cc1OC | active: 15.8 µM
20 | CC(=O)Sc1nc(-c2ccccc2)[nH]c1S(=O)(=O)c1ccc(C)cc1 | inconclusive: 50.1 µM [inhibitor, partial curve]
21 | Cc1ccc(C)c(NC(=O)c2ccc3c(c2)CCCN3S(C)(=O)=O)c1 | inactive
22 | COc1cc(CNCc2ccncc2)cc(Br)c1OCc1ccccc1F | inconclusive: 89.1 µM [inhibitor, single point]
23 | CC(=O)N1CCOc2ccc(S(=O)(=O)Nc3cccc(C)n3)cc21 | inactive
24 | C=C(C(=O)c1ccccc1)C(C)C(=C)C(=O)c1ccccc1 | inactive

Row | SMILES | Potency
25 | Cc1cc(C)cc(-n2c(C)c3c(C)nnc(C)c3c2C)c1 | inconclusive: 44.7 µM [inhibitor, partial curve]
26 | O=S(=O)(NCC(c1cccnc1)N1CCN(c2ccc(F)cc2)CC1)c1ccc(F)cc1 (configuration not stated) | inconclusive: 79.4 µM [inhibitor, single point]
27 | CCN1C(=NCCN2CCOCC2)N[C@@H](c2ccccc2)C(C(=O)OC)=C1C | inconclusive: 89.1 µM [inhibitor, single point] and inconclusive: 79.4 µM [inhibitor, single point]
28 | OC1(CN2CCOCC2)C2CN3CCN(C2)CC1(c1ccccc1)C3 (configuration not stated) | inactive
29 | COc1ccccc1C1CCN(c2ccc(CO)cc2[N+](=O)[O-])CC1 | inconclusive: 35.5 µM [inhibitor, partial curve]
30 | CC1=C(C(=O)OCc2ccccc2)C(c2ccc([N+](=O)[O-])cc2)NC(=O)N1 (configuration not stated) | inconclusive: 79.4 µM [inhibitor, single point]
31 | S=C(N/N=C/c1ccc(Br)cc1)N1CCCCC1 | active: 7.94 µM
32 | O=C(Cn1nc(-c2ccco2)ccc1=O)Nc1ccc(Br)cc1 | inconclusive: 79.4 µM [inhibitor, single point]
33 | COc1ccc(-c2n[nH]c(C)c2-c2cnn(-c3ccccc3)c2)c(O)c1 | inconclusive: 89.1 µM [inhibitor, single point]
34 | COc1ccc(OCc2nnnn2-c2ccccc2)cc1 | inactive
35 | NC(N)=NC(=O)c1nc(Cl)c(N2CCCCCC2)nc1N | inconclusive: 50.1 µM [inhibitor, partial curve]
36 | O=C(COc1ccc(S(=O)(=O)NC2CCCCC2)cc1)NCCC1=CCCCC1 | inactive
37 | CCc1ccc(C(=O)c2cn(CC(=O)Nc3cc(OC)ccc3OC)c3nc(C)ccc3c2=O)cc1 | inactive
38 | O=C(Nc1ccccc1C(F)(F)F)C1CCN(S(=O)(=O)Cc2ccccc2)CC1 | inactive
39 | Cc1csc(C(=O)O)c1NC(=O)c1cccc([N+](=O)[O-])c1 | inconclusive: 89.1 µM [inhibitor, single point]
40 | Cn1nccc1C(=O)NC1CCCc2c1cnn2-c1ccc(C(C)(C)C)cc1 (configuration not stated) | inconclusive: 79.4 µM [inhibitor, single point]
41 | COc1ccc(N=Cc2sc(O)c3ccccc23)cc1 | inactive
42 | COC(=O)/C(=C(/F)Sc1cc(C)c(O)c(C)c1)C(F)(F)F | inconclusive: 89.1 µM [inhibitor, single point]
43 | CC(=O)c1c(C)[nH]c(C(=O)OCc2ccccc2F)c1C | inconclusive: 89.1 µM [inhibitor, single point]
44 | CC(Oc1ccc(Cl)cc1)C(=O)NCCCn1ccnc1 (configuration not stated) | inactive
45 | O=[N+]([O-])c1ccc2c(c1)nnn2-c1ccccc1 | inconclusive: 89.1 µM [inhibitor, single point]
46 | O=C(NCCCn1ccnc1)c1cc2nc(-c3ccc(Br)cc3)cc(C(F)(F)F)n2n1 | inconclusive: 44.7 µM [inhibitor, partial curve]
47 | COCCN(CC(=O)NCC1CCCO1)C(=O)CCC(=O)Nc1ccccn1 (configuration not stated) | inactive
